This note sets out measurements from article PMC7819943, “Rice protein-binding microarrays: a tool to detect cis-acting elements near promoter regions in rice”.

The other results are listed elsewhere or left out.

This experiment deals with T1, OsWOX13 (Oryza sativa, UniProt Q5QMM3 1-267).
T1 sequence: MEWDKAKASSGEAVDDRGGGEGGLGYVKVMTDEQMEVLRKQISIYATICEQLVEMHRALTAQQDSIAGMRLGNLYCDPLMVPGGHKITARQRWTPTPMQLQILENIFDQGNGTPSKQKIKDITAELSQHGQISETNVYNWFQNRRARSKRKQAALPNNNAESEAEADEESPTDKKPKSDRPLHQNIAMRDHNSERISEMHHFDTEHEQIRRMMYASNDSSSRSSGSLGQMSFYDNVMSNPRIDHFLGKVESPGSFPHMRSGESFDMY
As to the kind of experiment: protein-binding microarray (RPBM); PBS, 2% BSA, 51.3 ng/ul salmon testes DNA, 50 uM zinc acetate, 200 nM TF, 25 C, 1 h; high values mean tight binding. The settings on record: protein: recombinant; tags: N-terminal polyhistidine and DsRed monomer fusion (pET32a); label: CyDye5-dUTP incorporated in the synthesized complementary strand; 3' TTTTT single-stranded linker to array surface; dsDNA, one strand shown. In short, it runs like this:
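Ni–NTA purification followed expression in E. coli BL21-CodonPlus of transcription factors fused N-terminally to a polyhistidine tag and DsRed. At 200 nM in PBS with 2% BSA, salmon testes DNA and 50 µM zinc acetate, the protein was incubated for 1 h at 25 °C with a custom Agilent array that had been primer-extended with Cy5-dUTP and blocked with 2% BSA. After washing, the array was read on an Axon 4000B scanner. The binding signal is per-feature fluorescence intensity in arbitrary units.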
As to “ATTTAATCAATTATTGAGTTAGGATTATATTGAGTTTCTACGGAGTCACCTAGTGCAG”, the binding signal was 34900 fluorescence intensity (a.u.).

For the sequence “AACTTTGTAATTATATACAGAGATGGGAAACAAACAAATACGGAGTCACCTAGTGCAG”, the binding signal is 4870 fluorescence intensity (a.u.).

On to “CTTCATACAAGATTGGTACTTCTAAGAAACTCTATATTTGCGGAGTCACCTAGTGCAG”, for which the binding signal was 4480 fluorescence intensity (a.u.).

“AGCAATCCTAGCAAATTAGCAATAGCGATACCGATAGCTCCGGAGTCACCTAGTGCAG”: the binding signal was 3400 fluorescence intensity (a.u.).

On to “TATAATACTTAATTAATCATGCGCTAATAAATCATCTTGTCGGAGTCACCTAGTGCAG”, for which the binding signal is 19300 fluorescence intensity (a.u.).

On to “AACGTTCAGTGATTGAGCAGTAACTTAAAAGACAATGAACCGGAGTCACCTAGTGCAG”, for which the binding signal is 9390 fluorescence intensity (a.u.).

For “ATCTATCCAATCAAGAAAACTCTGTATATGTAGTTCGGCTCGGAGTCACCTAGTGCAG”, the binding signal was 16900 fluorescence intensity (a.u.).

On to “AATCAATTCCCCACCTGTCGTCATTTATCCATCATCACATCGGAGTCACCTAGTGCAG”, for which the binding signal is 3930 fluorescence intensity (a.u.).

Consider “GGATGGGATTATGATTGAGAAATAAATGAAAGATTAAGATCGGAGTCACCTAGTGCAG”, for which the binding signal was 31900 fluorescence intensity (a.u.).

“CATTGATGTATAGACTGTTGGTCATGTATGTACCTCCTGACGGAGTCACCTAGTGCAG”: the binding signal is 14100 fluorescence intensity (a.u.).

As to “CCCAGCTGATTTCCCGTTTAGTCGTACACCGGTCGAACAACGGAGTCACCTAGTGCAG”, the binding signal was 6020 fluorescence intensity (a.u.).

“AGTATAAACTTTTCCTAAATTTTATCTCCTGTTTCGGTATCGGAGTCACCTAGTGCAG”: the binding signal was 3240 fluorescence intensity (a.u.).

“GAAAGTTAATTACAATGACTGAAGGTGTGTACTCACTTGGCGGAGTCACCTAGTGCAG”: the binding signal was 41400 fluorescence intensity (a.u.).

Consider “AGATCTAACTCATAAAATTAAATTTAATAGTTTAAGCCCTCGGAGTCACCTAGTGCAG”, for which the binding signal was 4270 fluorescence intensity (a.u.).

For the sequence “ATCTTAATTTACCTTTCACTGCATCTAATATGTCACTTTGCGGAGTCACCTAGTGCAG”, the binding signal was 20700 fluorescence intensity (a.u.).

Take “TAGCAATTAATAATAAACAACTACAAACTTGCACACACTGCGGAGTCACCTAGTGCAG”: the binding signal is 9390 fluorescence intensity (a.u.).

For “GACAATAATTAATTTCCAACACCAAAGCCGCTTCTTCCCTCGGAGTCACCTAGTGCAG”, the binding signal was 23000 fluorescence intensity (a.u.).

Consider “GTAAAGACTGATGGAAAGAGAGCTAGCTAGTAGTAAATCACGGAGTCACCTAGTGCAG”, for which the binding signal is 3290 fluorescence intensity (a.u.).

As to “CTAATGGATTGAGGCTGGAGACATGCTCTCTTTTGTCACACGGAGTCACCTAGTGCAG”, the binding signal is 14500 fluorescence intensity (a.u.).

On to “TCTACAATAATATATGCATGATTTATATACCACTGCTGTTCGGAGTCACCTAGTGCAG”, for which the binding signal is 7600 fluorescence intensity (a.u.).

For “CAGAAAATTTTGGTTTAACAGCACAAATTAGTATAGTTATCGGAGTCACCTAGTGCAG”, the binding signal was 19100 fluorescence intensity (a.u.).

For “CAATAAATATAATTTATTTCAATTCATAACATCCATGACGCGGAGTCACCTAGTGCAG”, the binding signal was 20800 fluorescence intensity (a.u.).

Turning to “GTGGTTAACTAATTGTAAATTGTGATGAGATTTCTCATCACGGAGTCACCTAGTGCAG”, the binding signal is 22700 fluorescence intensity (a.u.).

Regarding “GTATTTAATTAATTTGCTTATACTTCAATGTCACACATAACGGAGTCACCTAGTGCAG”, the binding signal was 38600 fluorescence intensity (a.u.).

Regarding “AGTTAATTAGCACCCCTGTGGCTACCATCGATCTGTCTAACGGAGTCACCTAGTGCAG”, the binding signal was 26400 fluorescence intensity (a.u.).

For the sequence “ATATACTATTTAAATTTAAATTATCATAAACCATATCAACCGGAGTCACCTAGTGCAG”, the binding signal was 16100 fluorescence intensity (a.u.).

Turning to “CTTAATTTTAGTCTCTGTATTTAGACACTAATTTGGAGTACGGAGTCACCTAGTGCAG”, the binding signal is 38200 fluorescence intensity (a.u.).

Turning to “ACAAATGCACGGTCATTAAGTTAATTAGCCAGTATCATTACGGAGTCACCTAGTGCAG”, the binding signal is 8230 fluorescence intensity (a.u.).

On to “AGGAATAAGTTGTGATTGGCAGGGTTTACATTACTTTTCGCGGAGTCACCTAGTGCAG”, for which the binding signal is 28400 fluorescence intensity (a.u.).

Turning to “AACACATCAATCAAATCCTTTGTTAGATTTGATGCGAGCGCGGAGTCACCTAGTGCAG”, the binding signal is 27200 fluorescence intensity (a.u.).

As for “GCGGCAGCGCTAGGGTGATTGACTACGCCCTCCTCCTTGACGGAGTCACCTAGTGCAG”, the binding signal was 7690 fluorescence intensity (a.u.).

Take “GGTAATCAATAAAGGAATCGATTGAAATCTGTGTGGTTGACGGAGTCACCTAGTGCAG”: the binding signal is 18600 fluorescence intensity (a.u.).

With “TCACTGATTACAGGCACTCCTCTCCGATCCAACATAATTACGGAGTCACCTAGTGCAG”, the binding signal is 4520 fluorescence intensity (a.u.).

Consider “TATATATATATATATATATATATATAGTAGCAGTAGCAGTCGGAGTCACCTAGTGCAG”, for which the binding signal was 15300 fluorescence intensity (a.u.).

With “ACCAATAACTGTTATAGATACTGGAGTAGTATATTCTGATCGGAGTCACCTAGTGCAG”, the binding signal is 4770 fluorescence intensity (a.u.).

With “CACACGCTAATTTGCCTATTTAACTGAAACCATTCTTCTCCGGAGTCACCTAGTGCAG”, the binding signal is 28700 fluorescence intensity (a.u.).

For “AATAATTGCTCTTGTGCTAAGAAAATTCCAACTTATACTCCGGAGTCACCTAGTGCAG”, the binding signal is 20400 fluorescence intensity (a.u.).

As for “GAAATAAATCACTGGATCAAGACACAATTCTTCATGGTCTCGGAGTCACCTAGTGCAG”, the binding signal was 5100 fluorescence intensity (a.u.).

Regarding “CATGTAATTGGAACACCCAGTGGCCCGGGATGGAACGGAGCGGAGTCACCTAGTGCAG”, the binding signal is 23500 fluorescence intensity (a.u.).

Consider “TATATATATATATATATATATATATAATTCTAATGTCATACGGAGTCACCTAGTGCAG”, for which the binding signal was 25300 fluorescence intensity (a.u.).

Regarding “CAAAACGAAATTGATAGATCTTAATGAGTTGTACAACTTTCGGAGTCACCTAGTGCAG”, the binding signal is 20400 fluorescence intensity (a.u.).

Consider “TCTTGATAGAAAGAACTTTCTTTGGTTAGGACACTGCGTTCGGAGTCACCTAGTGCAG”, for which the binding signal is 27500 fluorescence intensity (a.u.).
